Experimental data taken from PubChem BioAssay AID1346428 (National Center for Advancing Translational Sciences (NCATS), 2018).
Hit rate of the full screen: of about 48,000 compounds, about 1,200 (2.5%) were called active. Another 2% or so got no clear call; they are omitted.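 How the source made its calls: active means activation of at least 60% and not above a set upper limit (about 1 call in 100 departs from these limits); inconclusive means activation of 40% to 60%, or above that upper limit; inactive means activation under 40%.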 The list shows a part of the results.

Biological target: Probable G-protein coupled receptor 32 (Homo sapiens) (UniProt O75388)
Sequence of UniProt O75388 (O75388 whole entry, looked up): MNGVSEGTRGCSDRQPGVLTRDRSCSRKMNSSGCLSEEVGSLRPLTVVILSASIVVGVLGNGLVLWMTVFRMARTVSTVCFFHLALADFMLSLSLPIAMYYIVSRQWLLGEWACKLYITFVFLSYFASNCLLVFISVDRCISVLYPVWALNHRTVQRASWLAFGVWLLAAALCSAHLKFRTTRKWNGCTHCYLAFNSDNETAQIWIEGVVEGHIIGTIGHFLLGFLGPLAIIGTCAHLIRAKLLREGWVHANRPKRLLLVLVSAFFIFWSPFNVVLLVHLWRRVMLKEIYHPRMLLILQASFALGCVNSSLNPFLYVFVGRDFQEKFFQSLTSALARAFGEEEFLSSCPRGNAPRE
Assay: qHTS for Agonists of Human Resolvin D1 Receptor DRV1; further: 0% is about no effect
Settings: CHO-K1 GPR32 beta-arrestin PathHunter luminescence, 90 min; at 76.9 µM; hits give high values; zero percent set by DMSO-only wells
Summary of the method: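 Step 1: seed CHO-K1 GPR32 beta-arrestin cells, 2,500/well, overnight at 37 °C. Step 2: add compounds, 90 min at 37 °C. Step 3: detection reagent, 1 h ambient, then luminescence.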

activation, inactive:
Cc1c(Cl)cccc1NC(=O)CCn1cnnn1 -1.25%
CCN(CC)CCCNC(=O)C(C)n1nc(C)n2c(cc3occc32)c1=O (stereo not given) 3.99%
CC(C)c1ccc(NC(=O)c2cc(S(=O)(=O)NC3CCCCC3)ccc2F)cc1 -12.2%
COC(=O)c1ccccc1NC(=O)CN(c1ccc(Cl)cc1)S(=O)(=O)c1ccc(OC)cc1 -6.9%
COc1ccc(CCNC(=O)Cn2c(=O)nc(-c3ccccc3F)c3cc(Cl)ccc32)cc1OC 0.783%
O=C(C1CCC(CNS(=O)(=O)c2cccs2)CC1)N1CCN(c2ccc(Cl)cc2)CC1 (stereo not given) 6.22%
Cc1ccc2[nH]c(CSc3nnc(C)s3)cc(=O)c2c1 0.757%
CCOc1ccccc1NC(=O)C1CCN(S(=O)(=O)c2cccc3nonc23)CC1 -24.2%
O=c1ccc2ccc(O)c(O)c2o1 12.4%
COc1ccc(N2CCN(c3ncnc4onc(C)c34)CC2)cc1 16.8%
O=C(Nc1cc(-c2ccc(F)c(F)c2)no1)c1ccccc1F 0.891%
Cc1cccc(N2CCN(C(=O)C3CCCN(C(=O)c4cc5sccc5n4C)C3)CC2)c1C (stereo not given) -21.2%
CCC1CN(C(=O)C2CCN(S(=O)(=O)c3c(C)noc3/C=C/c3ccc(C)cc3)CC2)c2cc(C)ccc2O1 (stereo not given) -23.7%
CCOc1ccc(CCNC(=O)Cn2ccc3cc(S(=O)(=O)N4CCCCCC4)ccc32)cc1 -5.19%
CC1=C(C(=O)Nc2ccc(F)cc2)C(c2ccc(N(C)C)cc2)NC(=O)N1 (stereo not given) -7.17%
COCCNC(=O)CCn1c(=O)[nH]c2cc(OC)c(OC)cc2c1=O -2.21%
COc1ccc(NC(=O)C(=O)c2cc(C)n(-c3ccc(C)cc3)c2C)cc1Cl 14.1%
COc1ccc(C(=O)NCc2nnc(SCC(=O)Nc3ccc(C)cc3)n2-c2ccccc2)cc1 -4.65%
CCc1ccc(CNC(=O)c2ccc(NC(=O)N3CCSc4ncccc43)cc2)cc1 -6.15%
CCc1nc2nc(C)cc(Nc3cc(Cl)ccc3OC)n2n1 -6.63%
Cc1ccc(SCC(=O)Nc2ccc3oc(-c4ccc(F)cc4)nc3c2)cc1 8.89%
CCOc1ccc(CNC(=O)CCc2c(C)nn(-c3ccc(N4CCOCC4)nn3)c2C)cc1 3.99%
Cc1ccc(S(=O)(=O)N2CCC(c3nnc(-c4cccc(C)c4)o3)CC2)cc1 -14.2%
CCOc1ccc(CCNC(=O)c2ccc(C)c(-n3cnc4cccnc43)c2)cc1 2.06%
CC(C)NC(=O)Cn1c(=O)nc(-c2ccccc2)c2ccccc21 -5.84%
CCOc1ccc(Nc2cc(C)c(C#N)c3nc4ccccc4n23)cc1 5.04%
Cc1cccc(N(C)C(=O)CS(=O)(=O)c2cccc3nsnc23)c1 -4.89%
COc1cccc(CNC(=O)c2ccc3c(Cl)c4c(nc3c2)CCCC4)c1 -7.34%
Cc1ccc(C(C)C)c(OCc2ccc(C(=O)Nc3ccc(S(N)(=O)=O)cc3C)o2)c1 33.3%
Cc1ccc(S(=O)(=O)c2nc(-c3ccco3)oc2SCC(=O)c2ccc(Cl)cc2)cc1 -13%
O=C(OCc1ccco1)c1ccc2c(c1)N(Cc1ccc([N+](=O)[O-])cc1)C(=O)c1ccccc1S2 -9.91%
CCCCN(CCCC)C(C(N)=O)c1ccc(OC)cc1 (stereo not given) -4.53%
Oc1ccccc1-c1nc(/C=C/c2ccccc2)nn1-c1ccccc1 -13.3%
O=C(CN1C(=O)COc2ccc(S(=O)(=O)N3CCCC3)cc21)NCCc1ccc(Cl)cc1 -16.2%
Cc1nc(-n2nc(C)c(CCC(C)C)c2C)sc1C(=O)Nc1cccc(Cl)c1C -6.32%
CCOC(=O)c1c(NC(=O)c2ccccc2C)sc2c1CCCC2 -7.23%
CC1CCN(c2nn3c(=O)c(C(=O)NCCc4ccc(Cl)cc4)cnc3s2)CC1 39.2%
COc1cc(OC)c(C(=O)CCCN2CCCC2)c(OC)c1 -6.45%
CC(=O)NCCc1c[nH]c2ccc(O)cc12 7.33%
COc1ccc2oc(=O)cc(CN3CCN(C(=O)c4ccccc4Br)CC3)c2c1 -19.7%
O=c1[nH]c2ccc(NS(=O)(=O)c3ccc(F)cc3)cc2s1 -7.84%
CCOc1ccc2nc(N3CCN(C(=O)C(C)C)CC3)sc2c1 9.49%
Brc1ccc(-c2nc(N3CCN(c4ccccc4)CC3)c3ccccc3n2)cc1 -4.44%
Cn1nnnc1SCCCNCc1ccc(-c2cccc(Cl)c2)o1 -11.3%
Cn1c(=O)c2c(-c3ccccc3)n3c(c2n(C)c1=O)C(c1cccc([N+](=O)[O-])c1)Nc1ccccc1-3 (stereo not given) -7.23%
Cc1ccc(NC(=O)C2CCCN(c3nc4ccccc4s3)C2)c(C)c1 (stereo not given) -3.57%
COc1ccc(C(=O)N2CCN(CCc3ccccn3)CC2)cc1 -1.49%
Cc1cccc(C)c1NC(=O)Cn1c(=O)n(CCC(=O)NCc2ccc3c(c2)OCO3)c(=O)c2sccc21 -16.3%
COc1ccc(-c2cc(C(F)(F)F)n3nc(C(=O)Nc4ccc(Cl)cc4C(F)(F)F)cc3n2)cc1OC -0.821%
O=S(=O)(c1cccc2c(I)cccc12)N1CCCNCC1 39.3%
Cc1oc(-c2ccccc2)nc1Cn1c(=O)cc(-c2ccccc2)c2c(C)nn(C)c21 -15.8%
CCN(C(=O)Cn1cnc2c1c(=O)n(C)c(=O)n2C)c1ccccc1C 7.31%
Cc1ccc(NC(=O)c2cnc(SCC(=O)N3CCCc4ccccc43)n(C)c2=O)cc1C 3.77%
CC(C)CN(CC(C)C)c1nnc(NC(=O)Nc2cccc(C(F)(F)F)c2)s1 -9.84%
Cc1ccc2nc(Cl)c3cc(C(=O)N4CCCC(C)C4)sc3c2c1 (stereo not given) -20.4%
